Data published in PMC9911399, “Two distinct binding modes provide the RNA-binding protein RbFox with extraordinary sequence specificity”.
Numbering of substitutions follows the chain as printed; changes in the protein carry UniProt numbers. The list shows a part of the results.

B1: GGUCGUU (DNA:RNA)
RNA: GGGAGACCGGAAUUCAGAUUGUCCGGUCGUUUUAAAUCCCGUCGUAGCCACCA
DNA 1: CAATCTGAATTCCGGTCTCCC
DNA 2: TGGTGGCTACGACGGGATT
B2: CCCUACU (DNA:RNA)
RNA: B1 RNA with G25C, G26C, U27C, C28U, G29A, U30C
DNA 1: CAATCTGAATTCCGGTCTCCC
DNA 2: TGGTGGCTACGACGGGATT
B3: AAUUGGU (DNA:RNA)
RNA: B1 RNA with G25A, G26A, C28U, U30G
DNA 1: CAATCTGAATTCCGGTCTCCC
DNA 2: TGGTGGCTACGACGGGATT
B4: CAUUAUU (DNA:RNA)
RNA: B1 RNA with G25C, G26A, C28U, G29A
DNA 1: CAATCTGAATTCCGGTCTCCC
DNA 2: TGGTGGCTACGACGGGATT
B5: CUAACAC (DNA:RNA)
RNA: GGGAGACCGGAAUUCAGAUUGUCCCUAACACUUAAAUCCCGUCGUAGCCACCA
DNA 1: CAATCTGAATTCCGGTCTCCC
DNA 2: TGGTGGCTACGACGGGATT
B6: AUGUACU (DNA:RNA)
RNA: B5 RNA with C25A, A27G, A28U, C29A, A30C, C31U
DNA 1: CAATCTGAATTCCGGTCTCCC
DNA 2: TGGTGGCTACGACGGGATT
B7: AGGCGCG (DNA:RNA)
RNA: B1 RNA with G25A, U27G, U30C, U31G
DNA 1: CAATCTGAATTCCGGTCTCCC
DNA 2: TGGTGGCTACGACGGGATT
B8: GUUCCUU (DNA:RNA)
RNA: B1 RNA with G26U, G29C
DNA 1: CAATCTGAATTCCGGTCTCCC
DNA 2: TGGTGGCTACGACGGGATT
B9: AAGUCCC (DNA:RNA)
RNA: B5 RNA with C25A, U26A, A27G, A28U, A30C
DNA 1: CAATCTGAATTCCGGTCTCCC
DNA 2: TGGTGGCTACGACGGGATT
B10: UUAUGCC (DNA:RNA)
RNA: B5 RNA with C25U, A28U, C29G, A30C
DNA 1: CAATCTGAATTCCGGTCTCCC
DNA 2: TGGTGGCTACGACGGGATT
B11: UUUGCAU (DNA:RNA)
RNA: B5 RNA with C25U, A27U, A28G, C31U
DNA 1: CAATCTGAATTCCGGTCTCCC
DNA 2: TGGTGGCTACGACGGGATT
B12: AUUAGUU (DNA:RNA)
RNA: B1 RNA with G25A, G26U, C28A
DNA 1: CAATCTGAATTCCGGTCTCCC
DNA 2: TGGTGGCTACGACGGGATT
B13: GCAACUU (DNA:RNA)
RNA: B5 RNA with C25G, U26C, A30U, C31U
DNA 1: CAATCTGAATTCCGGTCTCCC
DNA 2: TGGTGGCTACGACGGGATT
B14: GAAUCGG (DNA:RNA)
RNA: B5 RNA with C25G, U26A, A28U, A30G, C31G
DNA 1: CAATCTGAATTCCGGTCTCCC
DNA 2: TGGTGGCTACGACGGGATT
B15: UCAUUGU (DNA:RNA)
RNA: B5 RNA with C25U, U26C, A28U, C29U, A30G, C31U
DNA 1: CAATCTGAATTCCGGTCTCCC
DNA 2: TGGTGGCTACGACGGGATT
B16: UCGACUA (DNA:RNA)
RNA: B5 RNA with C25U, U26C, A27G, A30U, C31A
DNA 1: CAATCTGAATTCCGGTCTCCC
DNA 2: TGGTGGCTACGACGGGATT
B17: CGUGCCA (DNA:RNA)
RNA: B5 RNA with U26G, A27U, A28G, A30C, C31A
DNA 1: CAATCTGAATTCCGGTCTCCC
DNA 2: TGGTGGCTACGACGGGATT
B18: AUGGGUA (DNA:RNA)
RNA: B1 RNA with G25A, G26U, U27G, C28G, U31A
DNA 1: CAATCTGAATTCCGGTCTCCC
DNA 2: TGGTGGCTACGACGGGATT
B19: CAUCCCU (DNA:RNA)
RNA: B1 RNA with G25C, G26A, G29C, U30C
DNA 1: CAATCTGAATTCCGGTCTCCC
DNA 2: TGGTGGCTACGACGGGATT
B20: CAUAGCG (DNA:RNA)
RNA: B5 RNA with U26A, A27U, C29G, A30C, C31G
DNA 1: CAATCTGAATTCCGGTCTCCC
DNA 2: TGGTGGCTACGACGGGATT
B21: CUCUUCG (DNA:RNA)
RNA: B5 RNA with A27C, A28U, C29U, A30C, C31G
DNA 1: CAATCTGAATTCCGGTCTCCC
DNA 2: TGGTGGCTACGACGGGATT
B22: UCGGCCU (DNA:RNA)
RNA: B5 RNA with C25U, U26C, A27G, A28G, A30C, C31U
DNA 1: CAATCTGAATTCCGGTCTCCC
DNA 2: TGGTGGCTACGACGGGATT
B23: UUUAUAA (DNA:RNA)
RNA: B5 RNA with C25U, A27U, C29U, C31A
DNA 1: CAATCTGAATTCCGGTCTCCC
DNA 2: TGGTGGCTACGACGGGATT
B24: CGUUUCC (DNA:RNA)
RNA: B5 RNA with U26G, A27U, A28U, C29U, A30C
DNA 1: CAATCTGAATTCCGGTCTCCC
DNA 2: TGGTGGCTACGACGGGATT
B25: UUUAAAU (DNA:RNA)
RNA: B5 RNA with C25U, A27U, C29A, C31U
DNA 1: CAATCTGAATTCCGGTCTCCC
DNA 2: TGGTGGCTACGACGGGATT
B26: GCUGCGC (DNA:RNA)
RNA: B5 RNA with C25G, U26C, A27U, A28G, A30G
DNA 1: CAATCTGAATTCCGGTCTCCC
DNA 2: TGGTGGCTACGACGGGATT
B27: GUGUGAC (DNA:RNA)
RNA: B5 RNA with C25G, A27G, A28U, C29G
DNA 1: CAATCTGAATTCCGGTCTCCC
DNA 2: TGGTGGCTACGACGGGATT
B28: AUGACUA (DNA:RNA)
RNA: B5 RNA with C25A, A27G, A30U, C31A
DNA 1: CAATCTGAATTCCGGTCTCCC
DNA 2: TGGTGGCTACGACGGGATT
B29: AAUAUAG (DNA:RNA)
RNA: B5 RNA with C25A, U26A, A27U, C29U, C31G
DNA 1: CAATCTGAATTCCGGTCTCCC
DNA 2: TGGTGGCTACGACGGGATT
B30: AGAAAAG (DNA:RNA)
RNA: B5 RNA with C25A, U26G, C29A, C31G
DNA 1: CAATCTGAATTCCGGTCTCCC
DNA 2: TGGTGGCTACGACGGGATT
B31: GAAUCGA (DNA:RNA)
RNA: B5 RNA with C25G, U26A, A28U, A30G, C31A
DNA 1: CAATCTGAATTCCGGTCTCCC
DNA 2: TGGTGGCTACGACGGGATT

What follows are binders tested against T1, RBFOX1 RRM RbFoxmut (Fox-RRM*) (Homo sapiens, UniProt Q9NWB1 109-208, R118D;E147R;N151S;E152T) (assay: EMSA; HiTS-Eq, 1 nM pool, 10 min; buffer printed only for the single-RNA assays: 10 mM Tris pH 7.5, 150 mM NaCl, 3.4 mM EDTA, 0.001% NP-40, 30 C). Details: tags: His6 N-terminal (pET28a); label: 5' 32P.
T1 sequence: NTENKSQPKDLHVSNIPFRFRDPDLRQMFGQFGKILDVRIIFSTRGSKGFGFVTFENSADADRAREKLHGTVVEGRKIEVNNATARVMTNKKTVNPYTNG
Procedure, shortened: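 Purified RbFox RRM, wild type or mutant, was incubated for 10 min in 50 µL with 1 nM of a 5′-radiolabelled RNA pool carrying 7 randomized nucleotides, whose flanks were annealed to DNA oligonucleotides, over a series of increasing protein concentrations. Unbound RNA was resolved on 8% native PAGE, cut out, reverse-transcribed, barcoded by PCR and sequenced on an Illumina HiSeq 2500. Relative association constants were derived from changes in read counts for each RNA species versus the control reaction and normalised to the cognate motif.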

First: B1
Second: B2
The binding signal of the first is higher: 0.12 KA relative to UGCAUGU for the first, 0.0737 KA relative to UGCAUGU for the second.

Compared with B3, B4 is higher in binding signal: 0.119 KA relative to UGCAUGU for the first, 0.139 KA relative to UGCAUGU for the second.

Compared with B5, B6 is higher in binding signal: 0.0528 KA relative to UGCAUGU for the first, 0.109 KA relative to UGCAUGU for the second.

Compared with B7, B8 is lower in binding signal: 0.17 KA relative to UGCAUGU for the first, 0.0772 KA relative to UGCAUGU for the second.

First: B9
Second: B10
The binding signal of the first is lower: 0.048 KA relative to UGCAUGU for the first, 0.221 KA relative to UGCAUGU for the second.

Compared with B11, B12 is lower in binding signal: 0.139 KA relative to UGCAUGU for the first, 0.129 KA relative to UGCAUGU for the second.

First: B13
Second: B14
The binding signal of the first is lower: 0.0579 KA relative to UGCAUGU for the first, 0.186 KA relative to UGCAUGU for the second.

Compared with B15, B16 is lower in binding signal: 0.14 KA relative to UGCAUGU for the first, 0.078 KA relative to UGCAUGU for the second.

First: B17
Second: B18
The binding signal of the first is lower: 0.0901 KA relative to UGCAUGU for the first, 0.212 KA relative to UGCAUGU for the second.

First: B19
Second: B20
The binding signal of the first is lower: 0.0969 KA relative to UGCAUGU for the first, 0.123 KA relative to UGCAUGU for the second.

First: B21
Second: B22
The binding signal of the first is lower: 0.104 KA relative to UGCAUGU for the first, 0.113 KA relative to UGCAUGU for the second.

First: B23
Second: B24
The binding signal of the first is higher: 0.102 KA relative to UGCAUGU for the first, 0.0695 KA relative to UGCAUGU for the second.

First: B25
Second: B26
The binding signal of the first is lower: 0.0844 KA relative to UGCAUGU for the first, 0.134 KA relative to UGCAUGU for the second.

First: B27
Second: B28
The binding signal of the first is lower: 0.0854 KA relative to UGCAUGU for the first, 0.0952 KA relative to UGCAUGU for the second.

Compared with B29, B30 is higher in binding signal: 0.107 KA relative to UGCAUGU for the first, 0.118 KA relative to UGCAUGU for the second.

B31 was tested, and the binding signal was 0.561 KA relative to UGCAUGU.
